Measured values from ChEMBL document CHEMBL1201862, “PubChem BioAssay data set” (2004).
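Five concentrations, 48 hours, 96-well plates. GI50 is the concentration that inhibits growth by half.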 Active and inactive are the calls of the source. Rule as the data show it: active = GI50 up to about 1.1 µM and inactive = higher.

The compounds below were run on NCI-H322M (assay: NCI anticancer screen, dose series, 48 h).

Structure (SMILES)	GI50
OC/C=C(\I)CCCOCOCc1ccccc1	inactive: > 100 µM
O=C(c1nc2ccc(Cl)cc2nc1O)C(O)c1ccccc1 (centres undefined)	inactive: > 100 µM
O=C(N/N=C(COc1ccccc1)\N=C\c1cccnc1)c1ccncc1	inactive: > 100 µM
N/C=N/S(=O)(=O)c1ccc(NC(=O)COC(=O)c2cccc3c(=O)c4ccccc4[nH]c23)cc1	inactive: > 100 µM
O=C(c1cscc1CCc1ccccc1)c1cscc1CCc1ccccc1	inactive: > 100 µM
CCS(=O)(=O)Nc1ccc(Nc2c3ccccc3nc3ccccc23)c(OC)c1	inactive: 4.43 µM
COc1ccc(/C=C(\C#N)c2nc(-c3cc4ccccc4oc3=O)cs2)cc1	inactive: 92 µM
CCN1C(=O)C(=Cc2ccc(-c3ccccc3)cc2)C(=O)N(CC)C1=S	inactive: > 100 µM
CC(C)(C)C1=NN=C2c3ccccc3C(=O)C21 (centres undefined)	inactive: > 100 µM
[N-]=[N+]=C(C(=O)OCC#CCOC(=O)C(=[N+]=[N-])S(=O)(=O)c1ccccc1)S(=O)(=O)c1ccccc1	inactive: > 10 µM
COc1cccc(CSCC(=O)O)c1	inactive: > 100 µM
Cc1c(NC(=O)CCl)c(=O)oc2c(C)c3occc(=O)c3cc12	inactive: 13.5 µM
N#CCCNCCN(CCN(C(=O)Nc1ccccc1)c1ccccc1)C(=O)Nc1ccccc1	inactive: 69.3 µM
Cc1nc2c(=O)[nH]ncc2[nH]1	inactive: > 100 µM
O=P1(C(O)/C=C/c2ccccc2)N(Cc2ccccc2)[C@@H]2CCCC[C@H]2N1Cc1ccccc1 (some centres undefined)	inactive: 9.91 µM
COc1cc(C2SCC(=O)N2c2ccc(-c3ccc(-n4c(-c5ccccc5)nc5ccccc5c4=O)cc3)cc2)ccc1O (centres undefined)	inactive: > 100 µM
C/C=C1\CC(C(=O)OCC)CCCCCCC1=O (centres undefined)	inactive: > 100 µM
COC1C(O)CC(OC2C(C)OC(Oc3cc(O)c4c(O)c5c(cc4c3)C[C@@H]([C@H](OC)C(=O)[C@@H](O)[C@@H](C)O)[C@H](OC3CC(OC4CC(OC6CC(C)(O)C(O)C(C)O6)C(O)C(C)O4)C(O)C(C)O3)C5=O)CC2OC(C)=O)OC1C (some centres undefined)	inactive: > 100 µM
COc1ccccc1CCc1cc(OC)c(OC)c(OC)c1	inactive: > 100 µM
C=C(Br)C(C)(Br)CCC(Br)C(C)(C)Br (centres undefined)	inactive: > 100 µM
CC(C)C[C@H](NC(=O)CCc1cccc2ccccc12)B(O)O	inactive: 20.3 µM
OC1c2ccccc2[C@@H]2[C@H]1[C@@H](c1ccccc1)C1(Cc3ccccc3C1O)[C@H]2c1ccccc1 (some centres undefined)	inactive: 9.64 µM

Structure (SMILES)	GI50
COc1ccc2[nH]c3c(C)c4ccnc(NCCCN(C)CCCNc5ccc6nnn7c8ccccc8c(=O)c5c67)c4c(C)c3c2c1	active: 0.516 µM
O=C(Cc1ccccc1)N/N=C1\C(=O)Nc2ccccc21	inactive: > 100 µM
CC(=O)Oc1ccc2c(c1)[nH]c1c3ccc(OC(C)=O)cc3oc(=O)c21	inactive: 23.5 µM
COc1cc(/C=C/c2ccncc2)cc(OC)c1OC	inactive: > 100 µM
O=c1[nH]nc(Cc2ccc(Cl)cc2)n1/N=C/c1cccs1	inactive: > 100 µM
CCNCC(=O)O[C@]1(CC)C(=O)OCc2c1cc1n(c2=O)Cc2cc3ccccc3nc2-1	active: 0.933 µM
COC(O)C(=O)c1c2c(cc3c1CCC3)CCC2 (centres undefined)	inactive: > 100 µM
C/C=C/CC(S(=O)(=O)c1ccccc1)S(=O)(=O)c1ccccc1	inactive: > 100 µM
CCOC(=O)/C(=C\c1ccc(F)cc1)C(C)=O	inactive: 20.7 µM
CC1CCc2c(c(CC3CC(=O)NC(=O)C3)nn2-c2ccccc2)C1 (centres undefined)	inactive: > 100 µM
Nc1nc(Cl)cc(NCC2(CO)CC=CC2)n1	inactive: > 100 µM
CC(=O)NC1C(OCc2ccccc2)OC(CO)C(O)C1OCC(=O)N[C@@H](C)C(=O)N[C@H](CCC(=O)NCCNc1ccc([N+](=O)[O-])c2[nH]c3ccccc3c(=O)c12)C(N)=O (some centres undefined)	inactive: 29.6 µM
O=c1cc(-c2ccc(O)cc2)oc2cc(O[C@@H]3O[C@H](CO)[C@@H](O)[C@H](O)[C@H]3O)cc(O)c12 [APIGETRIN]	inactive: 87.1 µM
CC(Cc1ccc(O)cn1)(NC(=O)c1ccccc1)C(=O)O (centres undefined)	inactive: > 100 µM
O=C(O)c1c2c(cc3c(=O)cc(-c4ccccc4)oc13)CCCC2	inactive: > 100 µM
COc1ccc(N2C(=O)/C(=C(\C)c3cc4ccccc4oc3=O)N=C2c2cc([N+](=O)[O-])ccc2Cl)cc1	inactive: > 100 µM
CN(C)/N=N/c1nc2c(c(=O)n(C)c(=O)n2C)n1CC(O)CO (centres undefined)	inactive: > 100 µM
O=C(CCCN1CCC2(CC1)OC(=O)N(c1ccccc1)C2=O)c1ccccc1	inactive: > 100 µM
NNC(=S)N/N=C(\CCCC(=O)NCCc1ccccc1)CC(=O)c1ccccc1	inactive: > 100 µM
O=C1CCC(CCc2nc3ccccc3[nH]2)(c2ccccc2)C(=O)N1 (centres undefined)	inactive: > 100 µM
O=CC1CCC=CC1NC(=O)OCc1ccccc1 (centres undefined)	inactive: > 100 µM
COCOC1CCCC[C@@]1(OCCOCCO[C@@]1(c2ccccc2)CCCC[C@H]1OCOC)c1ccccc1 (some centres undefined)	inactive: > 100 µM
